In the supplement of paper PMC4604168 (melanoma cell lines) one finds cell count data, which are given here for ten molecules.

Some of the results follow. Repeats are few or missing, and single values can be far off.

Test systems include MZ2-MEL; MeWo; RPMI7951; RVH-421; SkMel28; SkMel2; SkMel30; SkMel5; UACC257; UACC62.
Common to all, as to assay: cell count relative to DMSO control; melanoma cells; higher = more viable cells
What all share (settings): library dose: low library concentration; 72 h
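Also: cell number obtained by counting DAPI-stained nuclei in high-throughput microscope images with image analysis software, screen run in 1,536-well plates.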

On to `Cc1cc(Nc2cc(N3CCN(C)CC3)nc(Sc3ccc(NC(=O)C4CC4)cc3)n2)n[nH]1` [Tozasertib] + COc1cc(N2CCC(N3CCN(C)CC3)CC2)ccc1Nc1ncc(Cl)c(Nc2ccccc2S(=O)(=O)C(C)C)n1 [NVP-TAE684] (first compound 0.006 µM, partner dose 0.08 µM), for which the cell count was found to be 96.8% in the assay on MZ2-MEL; 87.7% with MeWo; 89.4% in the assay on RPMI7951; 104% in the assay with RVH-421; 86.1% in the assay with SkMel28; 101% in the assay with SkMel2. Also, the cell count turned out to be 83.1% in the assay with SkMel30, 97.2% with SkMel5, 67.9% in the assay with UACC257 and 87% in the assay on UACC62.

As to `CC[C@]1(O)C[C@H]2CN(CCc3c([nH]c4ccccc34)[C@@](C(=O)OC)(c3cc4c(cc3OC)N(C=O)[C@H]3[C@@](O)(C(=O)OC)[C@H](OC(C)=O)[C@]5(CC)C=CCN6CC[C@]43[C@@H]65)C2)C1` [vincristine] + O=c1cc(-c2cccc3c2Sc2ccccc2S3)oc(N2CCOCC2)c1 [KU55933] (first compound 0.0001 µM, partner dose 1 µM), the cell count turned out to be 74.4% in the assay with MZ2-MEL; 80.8% in the assay on MeWo; 39.5% in the assay on RPMI7951; 94.7% with RVH-421; 62.7% in the assay with SkMel28; 74.9% in the assay on SkMel2. Further, the cell count in the assay with SkMel30 is 53.5%; in the assay on SkMel5 it was 92.6%; with UACC257 it was 47.1%; with UACC62 it was 38.7%.

For the molecule `CC[C@]1(O)C[C@H]2CN(CCc3c([nH]c4ccccc34)[C@@](C(=O)OC)(c3cc4c(cc3OC)N(C=O)[C@H]3[C@@](O)(C(=O)OC)[C@H](OC(C)=O)[C@]5(CC)C=CCN6CC[C@]43[C@@H]65)C2)C1` [vincristine] + N#Cc1c(O)c2c(-c3ccc(-c4ccccc4O)cc3)csc2[nH]c1=O [A769662] (first compound 0.0001 µM, partner dose 2 µM), the cell count in the assay on MZ2-MEL was determined as 100%; with MeWo, 91.2%; with RPMI7951, 59.6%; with RVH-421, 88.8%; in the assay with SkMel28 it was 61.7%; in the assay with SkMel2 it was 95.7%. Moreover, the cell count in the assay on SkMel30 came out at 77.6%; with SkMel5, 80.9%; in the assay on UACC257 it was 67.9%; in the assay with UACC62, 56.4%.

Regarding `N#CC[C@H](C1CCCC1)n1cc(-c2ncnc3[nH]ccc23)cn1` [ruxolitinib] + CS(=O)(=O)CCNCc1ccc(-c2ccc3ncnc(Nc4ccc(OCc5cccc(F)c5)c(Cl)c4)c3c2)o1 [lapatinib] (first compound 1 µM, partner dose 0.8 µM), the cell count with MZ2-MEL worked out at 99.4%; in the assay with MeWo, 93%; in the assay on RPMI7951, 90.7%; in the assay on RVH-421 it was 100%; with SkMel28, 102%; in the assay on SkMel2 it was 112%. In the assay on SkMel30, this molecule showed a cell count of 91.7%.

In the case of `Cc1cc(Nc2cc(N3CCN(C)CC3)nc(Sc3ccc(NC(=O)C4CC4)cc3)n2)n[nH]1` [Tozasertib] + Oc1nc(-c2ccc(C(F)(F)F)cc2)nc2c1CSCC2 [XAV939] (first compound 0.006 µM, partner dose 2 µM), the cell count is 98.7% in the assay on MZ2-MEL; 93% with MeWo; 88.9% in the assay on RPMI7951; 99.6% with RVH-421; 89.7% with SkMel28; 102% in the assay on SkMel2. For the same molecule, the cell count in the assay with SkMel30 was found to be 98.9%; with SkMel5, 76.2%; in the assay on UACC257 it was 70.5%; with UACC62, 83.4%.

Take `N#CC[C@H](C1CCCC1)n1cc(-c2ncnc3[nH]ccc23)cn1` [ruxolitinib] + COc1ccc(COc2ccc(Cc3cnc(N)nc3N)cc2OC)cc1 [GW2580] (first compound 1 µM, partner dose 1 µM): the cell count in the assay with MZ2-MEL is 107%; with MeWo it was 95.3%; with RPMI7951, 95.4%; with RVH-421, 105%; in the assay with SkMel28, 121%; in the assay on SkMel2 it was 113%. For the same molecule, the cell count was determined as 112% with SkMel30, 88% in the assay on SkMel5, 82.4% with UACC257 and 89.4% in the assay on UACC62.

Consider `Cc1cc(Nc2cc(N3CCN(C)CC3)nc(Sc3ccc(NC(=O)C4CC4)cc3)n2)n[nH]1` [Tozasertib] + NCC(=O)Nc1ccc(-n2nc(C(F)(F)F)cc2-c2ccc3c(ccc4ccccc43)c2)cc1 [OSU03012] (first compound 0.006 µM, partner dose 1 µM), for which the cell count worked out at 99.3% in the assay on MZ2-MEL; 62.9% with MeWo; 113% in the assay on RPMI7951; 93% in the assay on RVH-421; 77% with SkMel28; 93.9% in the assay with SkMel2. Also, the cell count in the assay on SkMel30 was found to be 47.5%; in the assay with SkMel5, 105%; with UACC257 it was 77.2%; with UACC62 it was 78.8%.

Regarding `N#CC[C@H](C1CCCC1)n1cc(-c2ncnc3[nH]ccc23)cn1` [ruxolitinib] + COc1ccc(-c2ccc3c(N4CCOCC4)nc(N4C[C@@H](C)O[C@@H](C)C4)nc3n2)cc1CO [KU0063794] (first compound 1 µM, partner dose 0.02 µM), the cell count in the assay on MZ2-MEL is 95.9%; in the assay on MeWo, 93.2%; in the assay with RPMI7951 it was 83.7%; in the assay with RVH-421, 96.5%; with SkMel28, 107%; with SkMel2, 97.7%. Moreover, the cell count in the assay on SkMel30 is 91%; in the assay on SkMel5, 104%; with UACC257 it was 99.5%.

Take `CC[C@]1(O)C[C@H]2CN(CCc3c([nH]c4ccccc34)[C@@](C(=O)OC)(c3cc4c(cc3OC)N(C=O)[C@H]3[C@@](O)(C(=O)OC)[C@H](OC(C)=O)[C@]5(CC)C=CCN6CC[C@]43[C@@H]65)C2)C1` [vincristine] + O=C(CCCCCCC(=O)Nc1ccccc1)NO [vorinostat] (first compound 0.0001 µM, partner dose 0.08 µM): the cell count in the assay on MZ2-MEL was 103%; with MeWo it was 101%; with RPMI7951, 84.5%; with RVH-421, 89.1%; in the assay on SkMel28 it was 87%; in the assay on SkMel2, 91.8%. Also, the cell count was 81.4% in the assay on SkMel30, 83.8% in the assay on SkMel5, 47.2% with UACC257 and 81.2% in the assay with UACC62.

Regarding `CC[C@]1(O)C[C@H]2CN(CCc3c([nH]c4ccccc34)[C@@](C(=O)OC)(c3cc4c(cc3OC)N(C=O)[C@H]3[C@@](O)(C(=O)OC)[C@H](OC(C)=O)[C@]5(CC)C=CCN6CC[C@]43[C@@H]65)C2)C1` [vincristine] + COc1cc(N2CCC(N3CCN(C)CC3)CC2)ccc1Nc1ncc(Cl)c(Nc2ccccc2S(=O)(=O)C(C)C)n1 [NVP-TAE684] (first compound 0.0001 µM, partner dose 0.08 µM), the cell count in the assay on MZ2-MEL turned out to be 109%; in the assay on MeWo, 64.9%; in the assay on RPMI7951, 49.3%; in the assay on RVH-421, 86.6%; in the assay on SkMel28, 61.2%; in the assay with SkMel2, 95.4%. In addition, the cell count in the assay with SkMel30 amounted to 55.2%; in the assay with SkMel5, 73.9%; in the assay on UACC257, 37.4%; in the assay on UACC62, 38%.
